Source: the BET-seq Pho4 binding data (Le et al. 2018)
Some of the results follow. Values were computed here from the reads of four pooled replicates and scatter widely.

Target: T1, Pho4 (S. cerevisiae) (UniProt P07270)
T1 sequence: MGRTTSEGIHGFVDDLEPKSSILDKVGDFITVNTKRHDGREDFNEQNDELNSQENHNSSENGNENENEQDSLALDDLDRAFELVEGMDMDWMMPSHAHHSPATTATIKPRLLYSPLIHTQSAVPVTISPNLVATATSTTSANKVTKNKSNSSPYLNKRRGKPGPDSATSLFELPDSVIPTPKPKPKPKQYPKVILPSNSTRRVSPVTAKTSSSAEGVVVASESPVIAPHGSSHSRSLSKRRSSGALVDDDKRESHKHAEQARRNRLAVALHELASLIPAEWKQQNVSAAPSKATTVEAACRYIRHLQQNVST
Experiment: relative binding free energy (BET-seq); higher = weaker binding
Details: reference: library average

| Sequence | relative binding free energy [kcal/mol] |
| --- | --- |
| TATGACACGTGTTTCG | 0.08 |
| TGGATCACGTGTAAGT | 0.27 |
| ATAAGCACGTGTGGTC | -0.11 |
| TGGGGCACGTGCGCTG | -0.21 |
| TGTGTCACGTGTTGCC | 0.1 |
| ATGTGCACGTGTCAGT | -0.02 |
| TGTGCCACGTGTTGCG | -0.03 |
| GGGGTCACGTGTGTAA | 0.13 |
| GGGTTCACGTGTCGAT | 0.31 |
| AGATACACGTGTGGTG | 0.12 |
| TGTACCACGTGAGGGT | 0.07 |
| TTCTTCACGTGATTGT | 0.22 |
| TATGACACGTGGGCGG | -0.08 |
| ATTAGCACGTGTCGTT | -0.11 |
| GGGGCCACGTGCGTGG | -0.2 |
| CATGGCACGTGGGGCT | -0.22 |
| TTAATCACGTGGTAGT | 0.02 |
| GGGTCCACGTGGGCGG | -0.14 |
| TGGGGCACGTGTAACT | 0.11 |
| GTGGACACGTGGTGGG | 0.04 |
| ATGTACACGTGAATTA | 0.29 |

| Sequence | relative binding free energy [kcal/mol] |
| --- | --- |
| TGATTCACGTGCTATT | 0.21 |
| GTTACCACGTGGGAAG | 0.03 |
| CAAGGCACGTGTGTAA | 0.03 |
| GTGGGCACGTGTGAAT | 0.17 |
| AGAGACACGTGGGGAA | -0.02 |
| TTATGCACGTGAGGAA | 0.08 |
| GGTGGCACGTGGGCTG | -0.17 |
| TGTAACACGTGGATTG | 0.03 |
| GGTCACACGTGGTATT | 0.04 |
| GTATGCACGTGTAAGG | 0.13 |
| CTTCGCACGTGTGGGA | -0.09 |
| TATCACACGTGGTGTA | 0 |
| TTTTGCACGTGGATGT | 0.21 |
| TTAGTCACGTGTGTGC | 0.08 |
| GGACTCACGTGGTCTG | 0.24 |
| TTGTTCACGTGCAGCG | 0.21 |
| AAGTTCACGTGCGCTG | 0.27 |
| TCATGCACGTGAGTTT | 0.24 |
| GGTTACACGTGCAGGG | 0.07 |
| CCCGGCACGTGGTAGG | -0.08 |
| GTGATCACGTGTGTTG | 0.15 |

| Sequence | relative binding free energy [kcal/mol] |
| --- | --- |
| TAAATCACGTGTTGCT | 0.13 |
| CTGTTCACGTGTATGG | 0.16 |
| TACGGCACGTGTGGTG | -0.05 |
| TTTTACACGTGAGTAT | 0.35 |
| CTATTCACGTGTGAGT | 0.18 |
| ATAAACACGTGGGGAT | -0.17 |
| CTGGTCACGTGGATTG | 0.15 |
| TTATTCACGTGTGCAA | 0.31 |
| TCGCACACGTGGGGGG | -0.11 |
| TTACTCACGTGTCGTT | 0.27 |
| TAGTTCACGTGGCGCA | 0.22 |
| GGTCGCACGTGGTTGA | -0.07 |
| TGGGACACGTGTAGGG | 0.07 |
| CTGGTCACGTGCTTTT | -0.06 |
| TGTATCACGTGGCCTT | 0.07 |
| GTTGACACGTGATGCG | 0.08 |
| ATGTGCACGTGTTCGA | -0.02 |
| TCTGTCACGTGAAAGG | 0.32 |
| AGTGCCACGTGTGGCG | -0.07 |
| AGTCTCACGTGATAGT | 0.27 |
| GCAGGCACGTGGGTAG | -0.29 |
